To fix the notation:
B1: Caulobacter ParB omega fusion; a variant is named by its letters at X, in order, B8GW30 (parent)
chain: MESVVVGEPGMSEGRRGLGRGLSALLGEVDAAPAQAPGEQLGGSREAPIEILQRNPDQPRRTFREEDLEDLSNSIREKGVLQPILVRPSPDTAGEYQIVAGERAWRAAQRAGLKTVPIMVRELDDLAVLEIGIIENVQRADLNVLEEALSYKVLMEKFERTQENIAQTIGKSXSHVANXMRLLXLPDEVQSYLVSGELTAXHARAIAAAADPVALAKQIIEGGLSVRETEALARKAPNLSAGKSKGGRPPRVKDTDTQALESDLSSVLGLDVSIDHRGSTGTLTITYATLEQLDDLCNRLTRGI

Over roughly 81,000 sequences, “one-hybrid fitness for binding NBS DNA” has its median near -0.1; the highest 2% begin near 0.36. The list shows a part of the results.

The test covers variants of B1. As to the kind of experiment: one-hybrid fitness for binding NBS DNA (the Noc-binding site; scaled: cognate 1, non-cognate 0); higher = stronger binding. Conditions: with NBS DNA site. Put shortly:
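Pre- and post-selection plasmids were Illumina-sequenced, three replicate libraries were pooled, and any variant with under 10 reads was removed. The libraries were Caulobacter ParB with four specificity codons randomised, selected in E. coli USO through a HIS3 reporter whose site is 19 bp from the promoter. Cells grew 48 hours at 37°C on M9 without histidine, with 0.1 mM IPTG and 5 mM 3-AT. Fitness is the log change in variant-to-wild-type read ratio, rescaled against cognate and non-cognate.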
In the case of QNDL, the “one-hybrid fitness for binding NBS DNA” value is ≤ 0.2.

Regarding RARK, the “one-hybrid fitness for binding NBS DNA” value was ≤ 0.2.

Consider PEHR, for which the “one-hybrid fitness for binding NBS DNA” value was ≤ 0.2.

Regarding PPWY, the “one-hybrid fitness for binding NBS DNA” value is ≤ 0.2.

On to KMDF, for which the “one-hybrid fitness for binding NBS DNA” value is ≤ 0.2.

On to IRTY, for which the “one-hybrid fitness for binding NBS DNA” value is ≤ 0.2.

As to RLFQ, the “one-hybrid fitness for binding NBS DNA” value is ≤ 0.2.

On to LVDG, for which the “one-hybrid fitness for binding NBS DNA” value is ≤ 0.2.

In the case of DHDN, the “one-hybrid fitness for binding NBS DNA” value is ≤ 0.2.

Turning to NYRH, the “one-hybrid fitness for binding NBS DNA” value is ≤ 0.2.

In the case of SYNI, the “one-hybrid fitness for binding NBS DNA” value is ≤ 0.2.

As for AFNC, the “one-hybrid fitness for binding NBS DNA” value was ≤ 0.2.

LDYR: the “one-hybrid fitness for binding NBS DNA” value was ≤ 0.2.

GYYT: the “one-hybrid fitness for binding NBS DNA” value was ≤ 0.2.

For SRNF, the “one-hybrid fitness for binding NBS DNA” value is ≤ 0.2.

As to FANW, the “one-hybrid fitness for binding NBS DNA” value is ≤ 0.2.

As to YNRR, the “one-hybrid fitness for binding NBS DNA” value was ≤ 0.2.

Turning to HCLN, the “one-hybrid fitness for binding NBS DNA” value is ≤ 0.2.

For QALA, the “one-hybrid fitness for binding NBS DNA” value is ≤ 0.2.

In the case of EESN, the “one-hybrid fitness for binding NBS DNA” value was ≤ 0.2.

With HEPT, the “one-hybrid fitness for binding NBS DNA” value is ≤ 0.2.

For AACT, the “one-hybrid fitness for binding NBS DNA” value is ≤ 0.2.

Take PTMV: the “one-hybrid fitness for binding NBS DNA” value was ≤ 0.2.

As to ATSW, the “one-hybrid fitness for binding NBS DNA” value was ≤ 0.2.

Take DHNC: the “one-hybrid fitness for binding NBS DNA” value is ≤ 0.2.

In the case of AYGC, the “one-hybrid fitness for binding NBS DNA” value is ≤ 0.2.

For the variant TRVV, the “one-hybrid fitness for binding NBS DNA” value is ≤ 0.2.

For the variant YTKK, the “one-hybrid fitness for binding NBS DNA” value is ≤ 0.2.

On to LIWD, for which the “one-hybrid fitness for binding NBS DNA” value is ≤ 0.2.

As to LTQD, the “one-hybrid fitness for binding NBS DNA” value is ≤ 0.2.

Turning to DVYL, the “one-hybrid fitness for binding NBS DNA” value was ≤ 0.2.

On to ERTA, for which the “one-hybrid fitness for binding NBS DNA” value is ≤ 0.2.

On to NSCG, for which the “one-hybrid fitness for binding NBS DNA” value was ≤ 0.2.

Take VYTC: the “one-hybrid fitness for binding NBS DNA” value was ≤ 0.2.

For the variant TRRW, the “one-hybrid fitness for binding NBS DNA” value was ≤ 0.2.

On to RLVW, for which the “one-hybrid fitness for binding NBS DNA” value is ≤ 0.2.

In the case of HRNS, the “one-hybrid fitness for binding NBS DNA” value is ≤ 0.2.

Consider VAWE, for which the “one-hybrid fitness for binding NBS DNA” value was ≤ 0.2.

For LTAM, the “one-hybrid fitness for binding NBS DNA” value was ≤ 0.2.

Regarding MIYG, the “one-hybrid fitness for binding NBS DNA” value is ≤ 0.2.

As to VIAM, the “one-hybrid fitness for binding NBS DNA” value was ≤ 0.2.

Regarding VLNM, the “one-hybrid fitness for binding NBS DNA” value was ≤ 0.2.

QKAF: the “one-hybrid fitness for binding NBS DNA” value is ≤ 0.2.

As for HEQS, the “one-hybrid fitness for binding NBS DNA” value was ≤ 0.2.

Turning to PPHE, the “one-hybrid fitness for binding NBS DNA” value is ≤ 0.2.

With NAAG, the “one-hybrid fitness for binding NBS DNA” value is ≤ 0.2.

Consider LFVP, for which the “one-hybrid fitness for binding NBS DNA” value was ≤ 0.2.

As to EVRP, the “one-hybrid fitness for binding NBS DNA” value is ≤ 0.2.

For the variant PLTT, the “one-hybrid fitness for binding NBS DNA” value is ≤ 0.2.

Regarding FGRM, the “one-hybrid fitness for binding NBS DNA” value is ≤ 0.2.

TYPG: the “one-hybrid fitness for binding NBS DNA” value was ≤ 0.2.

In the case of LAFH, the “one-hybrid fitness for binding NBS DNA” value is ≤ 0.2.

Regarding HLHI, the “one-hybrid fitness for binding NBS DNA” value was ≤ 0.2.

KRLF: the “one-hybrid fitness for binding NBS DNA” value was ≤ 0.2.

For the variant RATK, the “one-hybrid fitness for binding NBS DNA” value was ≤ 0.2.

Take NSPG: the “one-hybrid fitness for binding NBS DNA” value is ≤ 0.2.

For the variant NLVK, the “one-hybrid fitness for binding NBS DNA” value is ≤ 0.2.

Turning to SDGR, the “one-hybrid fitness for binding NBS DNA” value is ≤ 0.2.

For GDGY, the “one-hybrid fitness for binding NBS DNA” value was ≤ 0.2.

For the variant NTEK, the “one-hybrid fitness for binding NBS DNA” value is ≤ 0.2.

For the variant AGPG, the “one-hybrid fitness for binding NBS DNA” value is ≤ 0.2.

For VAGF, the “one-hybrid fitness for binding NBS DNA” value is ≤ 0.2.

For DREY, the “one-hybrid fitness for binding NBS DNA” value was ≤ 0.2.

Consider HLHR, for which the “one-hybrid fitness for binding NBS DNA” value was ≤ 0.2.

Turning to AQDT, the “one-hybrid fitness for binding NBS DNA” value was ≤ 0.2.

In the case of GDRC, the “one-hybrid fitness for binding NBS DNA” value is ≤ 0.2.

MATV: the “one-hybrid fitness for binding NBS DNA” value was ≤ 0.2.

Consider MYRT, for which the “one-hybrid fitness for binding NBS DNA” value is ≤ 0.2.

As for VTRR, the “one-hybrid fitness for binding NBS DNA” value is 0.313.

Regarding ADAR, the “one-hybrid fitness for binding NBS DNA” value was ≤ 0.2.

Take PGYA: the “one-hybrid fitness for binding NBS DNA” value was ≤ 0.2.

For FCSY, the “one-hybrid fitness for binding NBS DNA” value was ≤ 0.2.

As to GRTL, the “one-hybrid fitness for binding NBS DNA” value is ≤ 0.2.

As for HQMT, the “one-hybrid fitness for binding NBS DNA” value was ≤ 0.2.

For the variant IRPT, the “one-hybrid fitness for binding NBS DNA” value was ≤ 0.2.

Consider ITAK, for which the “one-hybrid fitness for binding NBS DNA” value was ≤ 0.2.

Consider WSQK, for which the “one-hybrid fitness for binding NBS DNA” value was ≤ 0.2.

With WWGG, the “one-hybrid fitness for binding NBS DNA” value was ≤ 0.2.

Take LSHF: the “one-hybrid fitness for binding NBS DNA” value is ≤ 0.2.

Turning to YGLN, the “one-hybrid fitness for binding NBS DNA” value was ≤ 0.2.

QQPT: the “one-hybrid fitness for binding NBS DNA” value stood at 0.379.

In the case of TSHC, the “one-hybrid fitness for binding NBS DNA” value is ≤ 0.2.

On to RLSQ, for which the “one-hybrid fitness for binding NBS DNA” value was ≤ 0.2.

Turning to ACLR, the “one-hybrid fitness for binding NBS DNA” value was ≤ 0.2.

In the case of LIQN, the “one-hybrid fitness for binding NBS DNA” value was ≤ 0.2.

For MDRY, the “one-hybrid fitness for binding NBS DNA” value is ≤ 0.2.

Regarding ICLK, the “one-hybrid fitness for binding NBS DNA” value is ≤ 0.2.

Take RKAI: the “one-hybrid fitness for binding NBS DNA” value is ≤ 0.2.

As for GKGF, the “one-hybrid fitness for binding NBS DNA” value was ≤ 0.2.

With PCAM, the “one-hybrid fitness for binding NBS DNA” value was ≤ 0.2.

In the case of DVNL, the “one-hybrid fitness for binding NBS DNA” value was ≤ 0.2.

As for GAKG, the “one-hybrid fitness for binding NBS DNA” value was ≤ 0.2.

Regarding PHQQ, the “one-hybrid fitness for binding NBS DNA” value is ≤ 0.2.

Turning to QKIE, the “one-hybrid fitness for binding NBS DNA” value was ≤ 0.2.

For the variant CQYR, the “one-hybrid fitness for binding NBS DNA” value was ≤ 0.2.

With GNKL, the “one-hybrid fitness for binding NBS DNA” value was ≤ 0.2.

Take RNVS: the “one-hybrid fitness for binding NBS DNA” value is ≤ 0.2.

As for IELR, the “one-hybrid fitness for binding NBS DNA” value was ≤ 0.2.

On to QTFL, for which the “one-hybrid fitness for binding NBS DNA” value was ≤ 0.2.

For the variant LCTS, the “one-hybrid fitness for binding NBS DNA” value is ≤ 0.2.

Turning to DLAR, the “one-hybrid fitness for binding NBS DNA” value is ≤ 0.2.

On to SSST, for which the “one-hybrid fitness for binding NBS DNA” value was ≤ 0.2.

Turning to ELLT, the “one-hybrid fitness for binding NBS DNA” value is ≤ 0.2.

Consider RGVY, for which the “one-hybrid fitness for binding NBS DNA” value is ≤ 0.2.

Consider WVWT, for which the “one-hybrid fitness for binding NBS DNA” value is ≤ 0.2.

In the case of AKRH, the “one-hybrid fitness for binding NBS DNA” value is ≤ 0.2.

Consider RTTT, for which the “one-hybrid fitness for binding NBS DNA” value came out at 0.543.

Consider YQDL, for which the “one-hybrid fitness for binding NBS DNA” value is ≤ 0.2.

As for TCSF, the “one-hybrid fitness for binding NBS DNA” value is ≤ 0.2.

Take LTYN: the “one-hybrid fitness for binding NBS DNA” value was ≤ 0.2.

For the variant SQCG, the “one-hybrid fitness for binding NBS DNA” value is ≤ 0.2.

For the variant APLI, the “one-hybrid fitness for binding NBS DNA” value is ≤ 0.2.

In the case of HHKY, the “one-hybrid fitness for binding NBS DNA” value was ≤ 0.2.

Turning to QDDG, the “one-hybrid fitness for binding NBS DNA” value is ≤ 0.2.

Turning to HRST, the “one-hybrid fitness for binding NBS DNA” value is ≤ 0.2.

For the variant RSWG, the “one-hybrid fitness for binding NBS DNA” value is ≤ 0.2.

Regarding SWRL, the “one-hybrid fitness for binding NBS DNA” value is ≤ 0.2.

Take LEAT: the “one-hybrid fitness for binding NBS DNA” value was ≤ 0.2.

For the variant AANC, the “one-hybrid fitness for binding NBS DNA” value is ≤ 0.2.

Turning to PHSE, the “one-hybrid fitness for binding NBS DNA” value was ≤ 0.2.

In the case of PKHY, the “one-hybrid fitness for binding NBS DNA” value was ≤ 0.2.

Take SRRD: the “one-hybrid fitness for binding NBS DNA” value was ≤ 0.2.

For CVTI, the “one-hybrid fitness for binding NBS DNA” value is ≤ 0.2.

Regarding PAAI, the “one-hybrid fitness for binding NBS DNA” value is ≤ 0.2.

As to VCGT, the “one-hybrid fitness for binding NBS DNA” value is ≤ 0.2.

In the case of SKTF, the “one-hybrid fitness for binding NBS DNA” value was ≤ 0.2.

For SDLW, the “one-hybrid fitness for binding NBS DNA” value was ≤ 0.2.

For GENG, the “one-hybrid fitness for binding NBS DNA” value was ≤ 0.2.

Regarding PAQS, the “one-hybrid fitness for binding NBS DNA” value was ≤ 0.2.

On to YYNS, for which the “one-hybrid fitness for binding NBS DNA” value is ≤ 0.2.

As to QNHA, the “one-hybrid fitness for binding NBS DNA” value was ≤ 0.2.

Turning to RAPE, the “one-hybrid fitness for binding NBS DNA” value is ≤ 0.2.

Take EVAD: the “one-hybrid fitness for binding NBS DNA” value was ≤ 0.2.

Regarding KTNH, the “one-hybrid fitness for binding NBS DNA” value was ≤ 0.2.

For ARTV, the “one-hybrid fitness for binding NBS DNA” value was ≤ 0.2.

With LRAI, the “one-hybrid fitness for binding NBS DNA” value is ≤ 0.2.

Take LQEC: the “one-hybrid fitness for binding NBS DNA” value was ≤ 0.2.

Consider PPMA, for which the “one-hybrid fitness for binding NBS DNA” value was ≤ 0.2.

In the case of GFQT, the “one-hybrid fitness for binding NBS DNA” value is ≤ 0.2.

With AKVC, the “one-hybrid fitness for binding NBS DNA” value is ≤ 0.2.

QCDC: the “one-hybrid fitness for binding NBS DNA” value was ≤ 0.2.

For the variant LQSC, the “one-hybrid fitness for binding NBS DNA” value is ≤ 0.2.

For the variant RKRN, the “one-hybrid fitness for binding NBS DNA” value was 0.258.

For the variant ACKA, the “one-hybrid fitness for binding NBS DNA” value was ≤ 0.2.

As to KEHL, the “one-hybrid fitness for binding NBS DNA” value was ≤ 0.2.

As for VINV, the “one-hybrid fitness for binding NBS DNA” value is ≤ 0.2.

Regarding PTSM, the “one-hybrid fitness for binding NBS DNA” value was ≤ 0.2.

As to QEAG, the “one-hybrid fitness for binding NBS DNA” value was ≤ 0.2.

In the case of RHLN, the “one-hybrid fitness for binding NBS DNA” value is ≤ 0.2.

Take NNIL: the “one-hybrid fitness for binding NBS DNA” value is ≤ 0.2.

Regarding SNCI, the “one-hybrid fitness for binding NBS DNA” value is ≤ 0.2.

Regarding QDNI, the “one-hybrid fitness for binding NBS DNA” value worked out at 0.32.

Regarding CLAC, the “one-hybrid fitness for binding NBS DNA” value was ≤ 0.2.

The values are drawn from a collection of fitness landscapes (doi:10.1016/j.celrep.2020.107928).
